Results published in the supplement of paper PMC4604168 (melanoma cell lines).
This is one part of the list. Single values are uncertain, as repeats are few or missing.

Assays:
Test in all cases: cell count relative to DMSO control; melanoma cells; higher = more viable cells
Details in all cases: library dose: standard library concentration; 72 h
G361 = tested on: G361
IPC-298 = tested on: IPC-298
IST-MEL1 = tested on: IST-MEL1
LB2518-MEL = tested on: LB2518-MEL
LOXIMVI = tested on: LOXIMVI
MEL-HO = tested on: MEL-HO
MZ2-MEL = tested on: MZ2-MEL
MeWo = tested on: MeWo
RPMI7951 = tested on: RPMI7951
RVH-421 = tested on: RVH-421
SkMel28 = tested on: SkMel28
SkMel2 = tested on: SkMel2
SkMel30 = tested on: SkMel30
SkMel5 = tested on: SkMel5
UACC257 = tested on: UACC257
UACC62 = tested on: UACC62
WM115 = tested on: WM115
WM1716 = tested on: WM1716
WM1745 = tested on: WM1745
WM3526 = tested on: WM3526
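Further: cells treated in 1,536-well plates, then fixed and DAPI-stained, with nuclei counted from automated high-throughput microscope images.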

Row | SMILES | cell count (G361) [%] | cell count (IPC-298) [%] | cell count (IST-MEL1) [%] | cell count (LB2518-MEL) [%] | cell count (LOXIMVI) [%] | cell count (MEL-HO) [%] | cell count (MZ2-MEL) [%] | cell count (MeWo) [%] | cell count (RPMI7951) [%] | cell count (RVH-421) [%] | cell count (SkMel28) [%] | cell count (SkMel2) [%] | cell count (SkMel30) [%] | cell count (SkMel5) [%] | cell count (UACC257) [%] | cell count (UACC62) [%] | cell count (WM115) [%] | cell count (WM1716) [%] | cell count (WM1745) [%] | cell count (WM3526) [%]
1 | N#CC[C@H](C1CCCC1)n1cc(-c2ncnc3[nH]ccc23)cn1 [ruxolitinib] + CC(C)(C)c1cnc(CSc2cnc(NC(=O)C3CCNCC3)s2)o1 [SNS-032] (first compound 5 µM, partner dose 0.05 µM) | 86.2 | 108 | 85.3 | 82.7 | 64.9 | 86.1 | 106 | 95.6 | 18.9 | 65.2 | 82.6 | 87.2 | 109 | 70.8 | 89.4 | 81.8 | 58.5 | 72.1 | 102 | 
2 | N#CC[C@H](C1CCCC1)n1cc(-c2ncnc3[nH]ccc23)cn1 [ruxolitinib] + C=C(c1ccc(C(=O)O)cc1)c1cc2c(cc1C)C(C)(C)CCC2(C)C [Bexarotene] (first compound 5 µM, partner dose 10 µM) | 59.4 | 73.2 | 82.1 | 119 | 144 | 68.8 | 59.4 | 72.2 | 60.5 | 101 | 74.7 | 103 | 121 | 73.3 | 74.3 | 103 | 95.1 | 87.5 | 62.5 | 94
3 | N#CC[C@H](C1CCCC1)n1cc(-c2ncnc3[nH]ccc23)cn1 [ruxolitinib] + COc1cc2c(Oc3ccc4[nH]c(C)cc4c3F)ncnc2cc1OCCCN1CCCC1 [cediranib] (first compound 5 µM, partner dose 2 µM) | 97.7 | 128 | 101 | 131 | 89.5 | 106 | 119 | 99.7 | 65.2 | 66.5 | 168 | 135 | 95.1 | 78 | 92.7 | 83.4 | 139 | 99.8 | 91.4 | 119
4 | CC[C@]1(O)C[C@H]2CN(CCc3c([nH]c4ccccc34)[C@@](C(=O)OC)(c3cc4c(cc3OC)N(C=O)[C@H]3[C@@](O)(C(=O)OC)[C@H](OC(C)=O)[C@]5(CC)C=CCN6CC[C@]43[C@@H]65)C2)C1 [vincristine] + CCN(CC)CCNC(=O)c1c(C)[nH]c(/C=C2\C(=O)Nc3ccc(F)cc32)c1C [sunitinib] (first compound 0.0005 µM, partner dose 2 µM) | 95.1 | 65.6 | 87 | 71 | 149 | 100 | 61.5 | 68.1 | 51.4 | 75.2 | 45.3 | 54.9 | 32.9 | 74.6 | 80.7 | 47.6 | 41.2 | 59.4 | 40.6 | 60.7
5 | CC[C@]1(O)C[C@H]2CN(CCc3c([nH]c4ccccc34)[C@@](C(=O)OC)(c3cc4c(cc3OC)N(C=O)[C@H]3[C@@](O)(C(=O)OC)[C@H](OC(C)=O)[C@]5(CC)C=CCN6CC[C@]43[C@@H]65)C2)C1 [vincristine] + Nc1ncn([C@H]2C[C@H](O)[C@@H](CO)O2)c(=O)n1 [decitabine] (first compound 0.0005 µM, partner dose 0.5 µM) | 67.1 | 50.9 | 65.5 | 77.6 | 78.2 | 63.3 | 57.2 | 70 | 60.5 | 70.1 | 64.2 | 86.2 | 81.8 | 60.8 | 110 | 74.8 | 57.2 | 50.1 | 75.6 | 56
6 | N#CC[C@H](C1CCCC1)n1cc(-c2ncnc3[nH]ccc23)cn1 [ruxolitinib] + OCc1c[nH]c2ccccc12 [Indole-3-carbinol] (first compound 5 µM, partner dose 4 µM) | 90.2 | 80.2 | 98.5 | 113 | 147 | 89.7 | 83.5 | 106 | 88.3 | 78.9 | 70.2 | 99.4 | 88.3 | 67.4 | 102 | 111 | 97.2 | 82.7 | 91 | 92.1
7 | CC[C@]1(O)C[C@H]2CN(CCc3c([nH]c4ccccc34)[C@@](C(=O)OC)(c3cc4c(cc3OC)N(C=O)[C@H]3[C@@](O)(C(=O)OC)[C@H](OC(C)=O)[C@]5(CC)C=CCN6CC[C@]43[C@@H]65)C2)C1 [vincristine] + CC(C)(C)c1cnc(CSc2cnc(NC(=O)C3CCNCC3)s2)o1 [SNS-032] (first compound 0.0005 µM, partner dose 0.05 µM) | 89.1 | 115 | 86.5 | 89.7 | 64.8 | 107 | 104 | 72.1 | 8.14 | 99.4 | 76.1 | 75 | 56.2 | 42.2 | 72.2 | 56.3 | 52 | 35.4 | 67.4 | 54.2
8 | N#CC[C@H](C1CCCC1)n1cc(-c2ncnc3[nH]ccc23)cn1 [ruxolitinib] + O=S(=O)(c1ccccc1)N(CC(F)(F)F)c1ccc(C(O)(C(F)(F)F)C(F)(F)F)cc1 [T0901317] (first compound 5 µM, partner dose 7 µM) | 79.6 | 78.2 | 103 | 127 | 108 | 87.3 | 109 | 77.6 | 95 | 97.3 | 123 | 119 | 92.6 | 55.9 | 88.5 | 104 | 105 | 85.9 |  | 
9 | N#CC[C@H](C1CCCC1)n1cc(-c2ncnc3[nH]ccc23)cn1 [ruxolitinib] + CN1CCN(c2ccc3nc(-c4c(N)c5c(F)cccc5[nH]c4=O)[nH]c3c2)CC1 [Dovitinib] (first compound 5 µM, partner dose 0.5 µM) | 53 | 65.2 | 75.8 | 55.9 | 120 | 74.8 | 48.4 | 48.6 | 62.3 | 96.9 | 60.6 | 83.5 | 98 | 52.6 | 69 | 92.4 | 77.6 | 68.7 | 52 | 66.6
10 | Cc1cc(Nc2cc(N3CCN(C)CC3)nc(Sc3ccc(NC(=O)C4CC4)cc3)n2)n[nH]1 [Tozasertib] + CO[C@H]1C[C@@H]2CC[C@@H](C)[C@@](O)(O2)C(=O)C(=O)N2CCCC[C@H]2C(=O)O[C@H]([C@H](C)C[C@@H]2CC[C@@H](OCCO)[C@H](OC)C2)CC(=O)[C@H](C)/C=C(\C)[C@@H](O)[C@@H](OC)C(=O)[C@H](C)C[C@H](C)/C=C/C=C/C=C/1C [everolimus] (first compound 0.03 µM, partner dose 0.1 µM) | 75.9 | 71.5 | 81.7 | 77.4 | 73.3 | 78.7 | 84.1 | 60.2 | 59.6 | 86.8 | 40.5 | 78 | 82 | 73.3 | 84.2 | 55.9 | 46.9 | 62.6 | 58.2 | 76.4
11 | N#CC[C@H](C1CCCC1)n1cc(-c2ncnc3[nH]ccc23)cn1 [ruxolitinib] + COc1ccc(Cl)c(Nc2nc3ccccc3nc2NS(=O)(=O)c2cccc(NC(=O)C(C)(C)N)c2)c1 [XL147] (first compound 5 µM, partner dose 4 µM) | 71.1 | 82.8 | 74.7 | 119 | 139 | 61 | 90.5 | 84.2 | 87.4 | 74 | 104 | 102 | 103 | 85.1 | 82.5 | 65.4 | 117 | 94.3 | 69.6 | 85.8
12 | N#CC[C@H](C1CCCC1)n1cc(-c2ncnc3[nH]ccc23)cn1 [ruxolitinib] + CS(=O)(=O)c1ccc(C(=O)Nc2ccc(Cl)c(-c3ccccn3)c2)c(Cl)c1 [vismodegib] (first compound 5 µM, partner dose 5 µM) | 70.7 | 76.6 | 96.1 | 94.5 | 135 | 70.9 | 87 | 75.9 | 81.4 | 67.1 | 104 | 101 | 89.5 | 73.7 | 99.7 | 79 | 113 | 88.2 | 81.2 | 83.7
13 | Cc1cc(Nc2cc(N3CCN(C)CC3)nc(Sc3ccc(NC(=O)C4CC4)cc3)n2)n[nH]1 [Tozasertib] + Nc1ccn([C@@H]2O[C@H](CO)[C@@H](O)C2(F)F)c(=O)n1 [gemcitabine] (first compound 0.03 µM, partner dose 0.002 µM) | 34.2 | 43.3 | 44.2 | 57.2 | 68.9 | 62.4 | 61.5 | 37.9 | 54.4 | 54.3 | 67.4 | 107 | 112 | 79 | 93.3 | 84.8 | 75.8 | 70 | 41.4 | 103
14 | Cc1cc(Nc2cc(N3CCN(C)CC3)nc(Sc3ccc(NC(=O)C4CC4)cc3)n2)n[nH]1 [Tozasertib] + O=C(Nc1cccc(Cl)c1)Nc1ncc(CCNc2ncnc3ccsc23)s1 [SNS314] (first compound 0.03 µM, partner dose 0.004 µM) | 40.7 | 64.1 | 43.8 | 68.4 | 69.6 | 57.9 | 72 | 36 | 52.4 | 62.2 | 37.7 | 47 | 71.7 | 49.1 | 52.1 | 67.7 | 32.5 | 38 | 48.2 | 53.5
15 | N#CC[C@H](C1CCCC1)n1cc(-c2ncnc3[nH]ccc23)cn1 [ruxolitinib] + C[C@@H]1CCN(C(=O)CC#N)C[C@@H]1N(C)c1ncnc2[nH]ccc12 [CP690550] (first compound 5 µM, partner dose 5 µM) | 70.3 | 112 | 77.2 | 151 | 101 | 92 | 133 | 81.1 | 116 | 127 | 144 | 105 | 130 | 68.7 | 88 | 141 | 85.3 | 83.5 | 75.5 | 104
